# The other results are listed elsewhere or left out.
# B1: rAAL-H59Q (Agrocybe aegerita), Q6WY08 (protein)
# chain: MQGVNIYNISAGTSVDLAAPVTTGDIVTFFSSALNLNAGAGNPNNTTLNLFAENGAYLLQIAFRLQENVIIFNSRQPDGPWLVEQRVSDVANQFAGIDGKAMVTVFDHGDKYQVVINEKTVIQYTKQISGLTLSLSYNATEETSIFSTVVEAVTYTGLALEHHHHHH
# Experiments:
# Assay in all cases: glycan array binding signal (z-score within array); higher = stronger binding
# Settings in all cases: glycan notation: IUPAC condensed, linker removed; mutation: H59Q
# [1] = target: GlcNAc(b1-4)GlcNAc(b1-4)GlcNAc(b1-4)GlcNAc(b1-4)GlcNAc
# Summary of the method: (§1)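 Negative Z-scores can be read as non-binding. The Z-score is calculated within each array and then averaged across arrays of one protein sequence at different concentrations or buffers and across linkers. Arrays, 3228 in all, were curated from the Consortium for Functional Glycomics database and kept only where the protein sequence was available.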
# [2] = target: GlcNAc(b1-4)GlcNAc(b1-4)GlcNAc(b1-4)GlcNAc(b1-4)GlcNAc(b1-4)GlcNAc
# Summary of the method: as §1
# [3] = target: GlcNAc(b1-4)[GlcNAc(b1-6)]GalNAc
# Summary of the method: as §1
# [4] = target: GlcNAc(b1-6)Gal(b1-4)GlcNAc
# Summary of the method: as §1
# GlcNAc(b1-6)GalNAc = target: GlcNAc(b1-6)GalNAc
# Summary of the method: as §1
# [5] = target: GlcNAc6S(b1-3)Gal(b1-4)GlcNAc
# Summary of the method: as §1
# Kdn(a2-3)Gal(b1-3)GalNAc = target: Kdn(a2-3)Gal(b1-3)GalNAc
# Summary of the method: as §1
# Kdn(a2-3)Gal(b1-3)GlcNAc = target: Kdn(a2-3)Gal(b1-3)GlcNAc
# Summary of the method: as §1
# Kdn(a2-3)Gal(b1-4)Glc = target: Kdn(a2-3)Gal(b1-4)Glc
# Summary of the method: as §1
# Kdn(a2-3)Gal(b1-4)GlcNAc = target: Kdn(a2-3)Gal(b1-4)GlcNAc
# Summary of the method: as §1
# [6] = target: Kdn(a2-3)Gal(b1-4)[Fuc(a1-3)]GlcNAc
# Summary of the method: as §1
# Kdn(a2-6)Gal(b1-4)GlcNAc = target: Kdn(a2-6)Gal(b1-4)GlcNAc
# Summary of the method: as §1
# [7] = target: Man(a1-2)Man(a1-2)Man(a1-3)Man
# Summary of the method: as §1
# [8] = target: Man(a1-2)Man(a1-2)Man(a1-6)[Man(a1-3)]Man
# Summary of the method: as §1
# Man(a1-2)Man(a1-3)Man = target: Man(a1-2)Man(a1-3)Man
# Summary of the method: as §1
# [9] = target: Man(a1-2)Man(a1-3)[Man(a1-2)Man(a1-6)]Man
# Summary of the method: as §1
# [10] = target: Man(a1-2)Man(a1-3)[Man(a1-2)Man(a1-6)]Man(a1-6)[Man(a1-2)Man(a1-2)Man(a1-3)]Man
# Summary of the method: as §1
# [11] = target: Man(a1-2)Man(a1-3)[Man(a1-2)Man(a1-6)]Man(a1-6)[Man(a1-2)Man(a1-2)Man(a1-3)]Man(b1-4)GlcNAc(b1-4)GlcNAc
# Summary of the method: as §1
# [12] = target: Man(a1-2)Man(a1-3)[Man(a1-6)]Man(a1-6)[Man(a1-2)Man(a1-3)]Man(b1-4)GlcNAc(b1-4)GlcNAc
# Summary of the method: as §1
# [13] = target: Man(a1-2)Man(a1-6)[Man(a1-3)]Man(a1-6)[Man(a1-2)Man(a1-2)Man(a1-3)]Man
# Summary of the method: as §1
# [14] = target: Man(a1-2)Man(a1-6)[Man(a1-3)]Man(a1-6)[Man(a1-2)Man(a1-2)Man(a1-3)]Man(b1-4)GlcNAc(b1-4)GlcNAc
# Summary of the method: as §1
# Man(a1-3)[Man(a1-6)]Man = target: Man(a1-3)[Man(a1-6)]Man
# Summary of the method: as §1
# [15] = target: Man(a1-3)[Man(a1-6)]Man(a1-6)[Man(a1-2)Man(a1-3)]Man(b1-4)GlcNAc(b1-4)GlcNAc
# Summary of the method: as §1
# [16] = target: Man(a1-3)[Man(a1-6)]Man(a1-6)[Man(a1-3)]Man
# Summary of the method: as §1
# [17] = target: Man(a1-3)[Man(a1-6)]Man(a1-6)[Man(a1-3)]Man(b1-4)GlcNAc(b1-4)GlcNAc
# Summary of the method: as §1
# [18] = target: Man(a1-3)[Man(a1-6)]Man(b1-4)GlcNAc(b1-4)GlcNAc
# Summary of the method: as §1
# [19] = target: Man(a1-3)[Man(a1-6)]Man(b1-4)GlcNAc(b1-4)[Fuc(a1-6)]GlcNAc
# Summary of the method: as §1
# Man(a1-6)Man = target: Man(a1-6)Man
# Summary of the method: as §1
# Man(b1-4)GlcNAc = target: Man(b1-4)GlcNAc
# Summary of the method: as §1
# MurNAc(b1-4)GlcNAc = target: MurNAc(b1-4)GlcNAc
# Summary of the method: as §1
# Neu5Ac(a2-3)Gal = target: Neu5Ac(a2-3)Gal
# Summary of the method: as §1
# [20] = target: Neu5Ac(a2-3)Gal(b1-3)GalNAc
# Summary of the method: as §1
# [21] = target: Neu5Ac(a2-3)Gal(b1-3)GalNAc(b1-3)Gal(a1-4)Gal(b1-4)Glc
# Summary of the method: as §1
# [22] = target: Neu5Ac(a2-3)Gal(b1-3)GalNAc(b1-4)Gal(b1-4)Glc
# Summary of the method: as §1
# [23] = target: Neu5Ac(a2-3)Gal(b1-3)GalNAc(b1-4)[Neu5Ac(a2-3)]Gal(b1-4)Glc
# Summary of the method: as §1
# [24] = target: Neu5Ac(a2-3)Gal(b1-3)GalNAc(b1-4)[Neu5Ac(a2-8)Neu5Ac(a2-3)]Gal(b1-4)Glc
# Summary of the method: as §1
# [25] = target: Neu5Ac(a2-3)Gal(b1-3)GalNAc6S
# Summary of the method: as §1
# [26] = target: Neu5Ac(a2-3)Gal(b1-3)GlcNAc
# Summary of the method: as §1
# [27] = target: Neu5Ac(a2-3)Gal(b1-3)GlcNAc(b1-2)Man
# Summary of the method: as §1
# [28] = target: Neu5Ac(a2-3)Gal(b1-3)GlcNAc(b1-2)Man(a1-3)[GlcNAc(b1-4)][Neu5Ac(a2-3)Gal(b1-3)GlcNAc(b1-2)Man(a1-6)]Man(b1-4)GlcNAc(b1-4)GlcNAc
# Summary of the method: as §1
# [29] = target: Neu5Ac(a2-3)Gal(b1-3)GlcNAc(b1-2)Man(a1-3)[Neu5Ac(a2-3)Gal(b1-3)GlcNAc(b1-2)Man(a1-6)]Man(b1-4)GlcNAc(b1-4)GlcNAc
# Summary of the method: as §1
# [30] = target: Neu5Ac(a2-3)Gal(b1-3)GlcNAc(b1-2)[Neu5Ac(a2-3)Gal(b1-3)GlcNAc(b1-4)]Man(a1-6)[Neu5Ac(a2-3)Gal(b1-3)GlcNAc(b1-2)Man(a1-3)]Man(b1-4)GlcNAc(b1-4)GlcNAc
# Summary of the method: as §1
# [31] = target: Neu5Ac(a2-3)Gal(b1-3)GlcNAc(b1-3)Gal(b1-3)GlcNAc
# Summary of the method: as §1
# [32] = target: Neu5Ac(a2-3)Gal(b1-3)GlcNAc(b1-3)Gal(b1-4)GlcNAc
# Summary of the method: as §1
# [33] = target: Neu5Ac(a2-3)Gal(b1-3)GlcNAc(b1-3)GalNAc
# Summary of the method: as §1
binder,measurement,setting,value
B1,glycan array binding signal (z-score),[1],-0.142
same,glycan array binding signal (z-score),[2],-0.137
same,glycan array binding signal (z-score),[3],-0.123
same,glycan array binding signal (z-score),[4],-0.096
same,glycan array binding signal (z-score),GlcNAc(b1-6)GalNAc,-0.032
same,glycan array binding signal (z-score),[5],-0.037
same,glycan array binding signal (z-score),Kdn(a2-3)Gal(b1-3)GalNAc,-0.089
same,glycan array binding signal (z-score),Kdn(a2-3)Gal(b1-3)GlcNAc,-0.087
same,glycan array binding signal (z-score),Kdn(a2-3)Gal(b1-4)Glc,-0.124
same,glycan array binding signal (z-score),Kdn(a2-3)Gal(b1-4)GlcNAc,-0.098
same,glycan array binding signal (z-score),[6],-0.051
same,glycan array binding signal (z-score),Kdn(a2-6)Gal(b1-4)GlcNAc,-0.023
same,glycan array binding signal (z-score),[7],-0.136
same,glycan array binding signal (z-score),[8],-0.06
same,glycan array binding signal (z-score),Man(a1-2)Man(a1-3)Man,-0.14
same,glycan array binding signal (z-score),[9],-0.008
same,glycan array binding signal (z-score),[10],-0.147
same,glycan array binding signal (z-score),[11],-0.132
same,glycan array binding signal (z-score),[12],-0.093
same,glycan array binding signal (z-score),[13],-0.026
same,glycan array binding signal (z-score),[14],-0.059
same,glycan array binding signal (z-score),Man(a1-3)[Man(a1-6)]Man,-0.103
same,glycan array binding signal (z-score),[15],-0.055
same,glycan array binding signal (z-score),[16],-0.121
same,glycan array binding signal (z-score),[17],-0.028
same,glycan array binding signal (z-score),[18],-0.085
same,glycan array binding signal (z-score),[19],-0.004
same,glycan array binding signal (z-score),Man(a1-6)Man,-0.107
same,glycan array binding signal (z-score),Man(b1-4)GlcNAc,-0.083
same,glycan array binding signal (z-score),MurNAc(b1-4)GlcNAc,-0.127
same,glycan array binding signal (z-score),Neu5Ac(a2-3)Gal,-0.095
same,glycan array binding signal (z-score),[20],-0.066
same,glycan array binding signal (z-score),[21],-0.076
same,glycan array binding signal (z-score),[22],-0.108
same,glycan array binding signal (z-score),[23],-0.101
same,glycan array binding signal (z-score),[24],-0.144
same,glycan array binding signal (z-score),[25],-0.117
same,glycan array binding signal (z-score),[26],-0.11
same,glycan array binding signal (z-score),[27],-0.142
same,glycan array binding signal (z-score),[28],-0.066
same,glycan array binding signal (z-score),[29],-0.05
same,glycan array binding signal (z-score),[30],-0.061
same,glycan array binding signal (z-score),[31],-0.12
same,glycan array binding signal (z-score),[32],-0.112
same,glycan array binding signal (z-score),[33],-0.021
